In all, about 310,000 compounds went through this assay and about 2,200 (0.71%) showed an effect of 50% or more. The effect is printed as a negative number. The list shows a part of the results.
molecular target: human ether-à-go-go-related gene (hERG) potassium channel (human, UniProt Q12809); assay: primary screen, population patch clamp on CHO cells stably expressing hERG
Sequence (Q12809 whole entry, looked up): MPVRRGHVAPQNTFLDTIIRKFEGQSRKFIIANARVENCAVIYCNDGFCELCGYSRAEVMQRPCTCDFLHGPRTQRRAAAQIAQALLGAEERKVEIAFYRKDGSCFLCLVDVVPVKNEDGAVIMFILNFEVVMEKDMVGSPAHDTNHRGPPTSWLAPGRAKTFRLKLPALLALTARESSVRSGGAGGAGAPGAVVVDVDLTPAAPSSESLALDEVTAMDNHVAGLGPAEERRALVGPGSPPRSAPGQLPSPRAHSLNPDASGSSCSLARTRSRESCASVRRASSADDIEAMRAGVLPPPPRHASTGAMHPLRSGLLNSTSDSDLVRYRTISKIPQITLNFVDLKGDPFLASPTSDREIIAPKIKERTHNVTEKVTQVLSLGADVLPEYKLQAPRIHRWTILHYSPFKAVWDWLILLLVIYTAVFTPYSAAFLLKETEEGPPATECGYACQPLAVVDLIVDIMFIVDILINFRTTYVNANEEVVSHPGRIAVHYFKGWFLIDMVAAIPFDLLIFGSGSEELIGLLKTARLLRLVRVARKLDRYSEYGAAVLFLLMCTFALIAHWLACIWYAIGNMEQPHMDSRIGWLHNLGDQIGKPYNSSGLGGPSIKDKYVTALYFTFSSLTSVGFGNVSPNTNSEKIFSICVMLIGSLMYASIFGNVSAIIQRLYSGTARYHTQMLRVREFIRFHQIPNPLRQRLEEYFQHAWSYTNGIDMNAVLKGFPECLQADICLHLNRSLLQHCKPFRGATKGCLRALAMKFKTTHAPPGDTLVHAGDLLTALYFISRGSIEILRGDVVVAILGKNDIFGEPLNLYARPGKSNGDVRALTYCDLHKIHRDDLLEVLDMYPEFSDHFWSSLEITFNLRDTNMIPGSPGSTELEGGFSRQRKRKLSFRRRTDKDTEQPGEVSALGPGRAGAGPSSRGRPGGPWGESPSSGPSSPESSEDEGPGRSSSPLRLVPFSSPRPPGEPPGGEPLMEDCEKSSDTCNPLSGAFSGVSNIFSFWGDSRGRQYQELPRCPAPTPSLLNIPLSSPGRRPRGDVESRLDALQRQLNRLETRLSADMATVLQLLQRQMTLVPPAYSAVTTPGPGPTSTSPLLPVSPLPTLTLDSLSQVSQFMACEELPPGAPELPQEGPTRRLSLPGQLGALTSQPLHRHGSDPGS

Row | Compound | hERG current change (%, negative = inhibition) at 1uM
1 | O=S(=O)(c1ccc2[nH]c3c(c2c1)CCCC3)N1CCCCC1 | 6.15%
2 | CCC1(c2ccc(F)cc2)NC(=O)N(CC(=O)N2c3ccccc3NC(=O)C2(C)C)C1=O (stereo not drawn) | 0.893%
3 | CCCCNC(=O)c1cccc(S(=O)(=O)N2CC3(C)CC2CC(C)(C)C3)c1 (stereo not drawn) | 0.441%
4 | CCC(=O)N(Cc1ccc(S(N)(=O)=O)cc1)C1CC(=O)N(c2ccccc2)C1=O (stereo not drawn) | 9.31%
5 | CCCS(=O)(=O)c1nc(S(=O)(=O)c2ccc(C)cc2)c(N2CCN(C)CC2)s1 | 18.9%
6 | COc1ccc(CNC(=O)COC(=O)c2ccc3ncsc3c2)cc1OC | 15.2%
7 | O=C(NCCCN1CCCCCC1)c1cc2c(=O)oc3ccccc3c2s1 | -11.1%
8 | Cc1cccc(NC(=S)Nc2ccccn2)c1 | 10%
9 | Cc1ccc(NC(=O)COc2coc(CN3CCc4ccccc43)cc2=O)c(C)c1 | 1.64%
10 | CN(CC(=O)Nc1ccccc1Br)CC(=O)Nc1ccccc1C(F)(F)F | -2.9%
11 | CCc1cccc2c(C#N)cn(CC(=O)N3CCOCC3)c12 | 8.98%
12 | Cl.O=C(COc1ccc(Cl)cc1)NCCN1CCCC1 | 4.75%
13 | O=C(NCC1CCCO1)c1cc2c(s1)CCCC2 (stereo not drawn) | 14.8%
14 | CSc1nc2c(c(=O)[nH]1)C(c1cccc(Br)c1)CC(=O)N2 (stereo not drawn) | 14.4%
15 | CC1C(=O)N2CCCc3cc(NC(=O)C4CC4)cc1c32 (stereo not drawn) | 6.68%
16 | Cc1cccc(NC(=S)NCCO)c1C | 17.6%
17 | Cc1cc(C)cc(N(C(C)C(=O)Nc2c(C)n(C)n(-c3ccccc3)c2=O)S(C)(=O)=O)c1 (stereo not drawn) | 8.49%
18 | CCN(CC)S(=O)(=O)c1cccc(-c2nnc(SCC(=O)NC3CCCC3)n2N)c1 | 19.5%
19 | CN(C)C(=S)NCc1ccccc1 | 11.8%
20 | CC(=O)Nc1ccc(NC(=O)CSc2nnnn2C2CCCCC2)cc1 | 7.21%
21 | O=C(NCCc1c[nH]c2ccccc12)/C(=C\c1cccs1)NC(=O)c1ccccc1 | -3.43%
22 | Clc1cccc(CON/C=N/c2ncnc3sccc23)c1 | 6.94%
23 | COc1ccc(Cl)cc1N1C(=O)C2CCCN2C1c1ccccc1F (stereo not drawn) | 3.82%

Row | Compound | hERG current change (%, negative = inhibition) at 1uM
24 | Cc1ccc(N2CC(C(=O)Nc3nnc(SCCN4CCOCC4)s3)CC2=O)cc1 (stereo not drawn) | 2.63%
25 | NC(=O)c1nc(-c2cccs2)nc2c1[nH]c(=O)n2-c1ccc(F)cc1 | 11.8%
26 | O=C(O)C1CC=CCC1C(=O)N1CC=C(c2ccccc2)CC1 (stereo not drawn) | 6.47%
27 | CCc1cccc(C)c1NC(=O)CCN1C(=O)NC(C)(C)C1=O | 13.4%
28 | Cl.Clc1ccc(CN2C3=NCCN3c3ccccc32)cc1 | -40.4%
29 | COC(=O)c1ccccc1NC(=O)C(C)c1ccc([N+](=O)[O-])cc1 (stereo not drawn) | -0.752%
30 | CCC(Sc1nncn1C)C(=O)Nc1ccccc1OC (stereo not drawn) | -2.15%
31 | Cc1ccc(S(=O)(=O)NNC(=O)CCC(=O)Nc2ccccc2)cc1 | 4.85%
32 | O=C(CCCN=C1NS(=O)(=O)c2ccccc21)OCc1cc([N+](=O)[O-])cc2c1OCOC2 | 5.19%
33 | Cc1ccc(C2CC(c3ccccc3)=NN2C(=S)Nc2ccccc2)o1 (stereo not drawn) | 3.95%
34 | COc1cccc(C(=O)OCC(=O)Nc2cc(C)c(C)cc2[N+](=O)[O-])c1 | 9.91%
35 | CCCCCCCCOc1ccc(C2OC34CCCCC3C(C#N)(C#N)C2(C#N)C(=N)O4)cc1 (stereo not drawn) | 4.69%
36 | CCN(C(=O)CN1C(=O)NC(c2ccccc2)(c2ccc(C)c(C)c2)C1=O)C1CCCCC1 (stereo not drawn) | -1.43%
37 | N#C/C(=C\c1ccc(F)cc1)C(=O)Nc1ccccn1 | 5.41%
38 | O=C(O)c1cc(O)ccc1NC(=O)c1cccc2ccccc12 | 6.67%
39 | COc1ccccc1C(CC(=O)Nc1nccs1)c1ccco1 (stereo not drawn) | 3.4%
40 | O=C(Nc1ccc(F)cc1)c1ccccc1NC(=O)C1CC=CCC1C(=O)O (stereo not drawn) | 13.6%
41 | COc1ccc(C(=O)NCCSc2ccccc2C)cc1 | 19.7%
42 | Cc1nc2c(C)cccn2c(=O)c1NC(=O)c1cccs1 | 9.88%
43 | O=C(OCc1nc2ccsc2c(=O)[nH]1)c1cc(Br)c(Br)s1 | 5.54%
44 | CC(=O)c1cccc(NC(=O)CCS(=O)(=O)c2ccc(Br)s2)c1 | 12.7%
45 | COc1ccc(OCCSc2nnc(-c3ccccc3)n2N)cc1 | 13.6%
46 | Cc1c(C(=O)N2CCN(S(=O)(=O)c3ccccc3F)CC2)oc2c(Cl)cccc12 | 20.6%

Row | Compound | hERG current change (%, negative = inhibition) at 1uM
47 | N#C/C(=C\N1CCOCC1)S(=O)(=O)c1ccc(Cl)cc1 | 13.5%
48 | O=C(NCc1ccc(F)cc1)c1ccc(S(=O)(=O)Nc2cccc(C(F)(F)F)c2)cc1 | 18.1%
49 | CCc1ccc(Nc2cnn(C34CC5CC(CC(CC(=O)O)(C5)C3)C4)c(=O)c2Cl)cc1 | 12.7%
50 | CCCCOc1ccc(NC(=O)CN2CCN(CC)CC2)cc1.Cl | 8.16%
51 | CCc1c(C#N)c(=O)[nH]c(=O)n1-c1ccccc1 | 14.3%
52 | CCn1c(CC(=O)Nc2ccccc2F)nnc1SCC(=O)Nc1nnc(C)s1 | 6.05%
53 | CCN(c1ccccc1C)S(=O)(=O)c1cc2c3c(c1)CCN3C(=O)CC2 | -0.313%
54 | CNc1nc(C)cc(C)c1S(=O)(=O)c1ccc(Cl)cc1 | 9.13%
55 | COc1cc(/C=N/NC(=O)c2ccc(COc3ccccc3Cl)o2)cc(Br)c1O | 3.3%
56 | CCN(CC)CCNC(=O)c1cc2c(=O)n(CC)c3ccccc3c2s1 | 8.96%
57 | CNc1nc(Nc2ccc(C(C)=O)cc2)nc(OC(C(F)(F)F)C(F)(F)F)n1 | 16.2%
58 | O=C(Nc1ccccc1)C(Cc1ccccc1)NC(=O)C12CC3CC(CC(C3)C1)C2 (stereo not drawn) | 4.81%
59 | CC12CN3CC(C)(CN(C1)C3c1ccc([N+](=O)[O-])o1)C2=O (stereo not drawn) | 9.42%
60 | CC(C)C1CC(CCN2CCCCC2)(c2ccccc2)CCO1.Cl (stereo not drawn) | 0.32%
61 | CCN=C1S/C(=C\c2ccc(O)c(OCC)c2)C(=O)N1CC | 3.5%
62 | Cc1ccc([C@@H]2CC=C(C(=O)O)[C@H](c3ccccc3F)N2S(=O)(=O)c2ccc(C)cc2)cc1 | 10%
63 | Cc1ccc(NC(=O)CCC(=O)NCCO)cc1 | 11.5%
64 | Cn1c(Nc2ccccc2)cc(=O)n(C)c1=O | 13.6%
65 | COc1ccc2c(c1)nc(NCCO)n2C | 12.3%
66 | O=C(CCn1c(=O)sc2ccccc21)NC1=NCCS1 | 10.8%
67 | Cc1ccc(S(=O)(=O)N2CCCCC2)cc1NC(=O)CN1C(=O)CN(C)C1=O | 23%
68 | Nc1nonc1-c1noc(CCCCCN2C(=O)c3ccccc3C2=O)n1 | 2.83%
69 | COc1ccccc1NC(=O)CSc1nc2ccccc2nc1N1CC(C)OC(C)C1 (stereo not drawn) | 16.8%

Row | Compound | hERG current change (%, negative = inhibition) at 1uM
70 | Cc1ccc(S(=O)(=O)N2CCN(C(=O)Cn3cnc4c3c(=O)n(C)c(=O)n4C)CC2)cc1C | 3.31%
71 | COc1ccc(N2CCN(CC(=O)Nc3nc4c(s3)CC(C)CC4)CC2)cc1 (stereo not drawn) | -0.697%
72 | CCN(CC)c1ccc(NC(=O)c2cccnc2)c(C)c1 | 20.2%
73 | Cc1[nH]c(=O)c(C#N)c(C)c1Br | 16.7%
74 | CCOCCCNC(=O)CN1N=C(c2ccc(C)cc2)CCC1=O | -15.8%
75 | COc1ccc(N(C(C)=O)c2nc3ccccc3[nH]2)cc1 | 15.9%
76 | CCCCCn1nc(C)c2c(C)cc(=O)[nH]c21 | 10.4%
77 | COc1cc(=O)[nH]c(SC(C)C(=O)Nc2cccc3ccccc23)n1 (stereo not drawn) | 8.84%
78 | CCN(CC(=O)NC(C)C)C(=O)Cc1ccc(C)c(C)c1 | 4.73%
79 | CCOC(=O)Cn1c(=O)c(-c2ccccc2NC)nc2ccccc21 | 3.89%
80 | CC1CC(C)CN(C(=O)CSC2=Nc3ccccc3C3=NC(Cc4c[nH]c5ccccc45)C(=O)N23)C1 (stereo not drawn) | 0.365%
81 | O=C(c1ccc(Cl)cc1)c1ccc(OCC(=O)N2CCOCC2)cc1 | 8.79%
82 | CC1CC(CCC(=O)NC(=S)Nc2ccc(Cl)cn2)C(=O)O1 (stereo not drawn) | -0.477%
83 | CC(C)c1ccc(OCCCCN2CCCCC2)cc1.O=C(O)C(=O)O | 0.053%
84 | O=C(COC(=O)C12CC3CC(CC(C3)C1)C2)Nc1ccc([N+](=O)[O-])cc1Cl | 11.4%
85 | COC(=O)c1ccc(NC(=O)CN2CCN(S(=O)(=O)c3ccc(Br)cc3)CC2)cc1 | -12.6%
86 | O=C1C(=O)N(CCN2CCOCC2)C(c2ccccc2)/C1=C(\O)c1ccc2c(c1)OCCO2 (stereo not drawn) | -9.7%
87 | Cc1cccc(-c2nc(Nc3cccc(O)c3)c3ccccc3n2)c1 | 14.7%
88 | Cc1cc(C)nc(SCc2ccc(C(=O)NN=C3CCCC3)cc2)n1 | 14.8%
89 | CCOC(=O)C1CCCN(C(=O)c2cn(C)c3ccc(S(=O)(=O)N(C)C)cc3c2=O)C1 (stereo not drawn) | 2.7%
90 | O=C(NC1=NCCS1)c1ccc(Cl)c(Cl)c1 | 14.1%

From article PMC4336329 (PLoS ONE, 2015)
